PubChem BioAssay AID1508624 (National Center for Advancing Translational Sciences (NCATS), 2021)
In all, about 48,000 compounds went through this assay and about 120 (0.25%) were called active. Roughly 4% stayed inconclusive and do not appear here. The call rests on the fitted dose curve; in most records, active means well fitted activation curve with a large enough effect; inconclusive means small, poorly fitted or top-dose-only effect, or another doubt; inactive means no such curve, though single readings can be large or run the other way. The entries are a selection whose mix differs from that of the whole data set. The source gives no active or inactive call for entries shown without one.
Potency means the concentration at half of the fitted maximal effect.

Assay: Primary qHTS for Identification of Small Molecule Activators of Huntingtin-Antisense Promoter Activity; further: nearly all actives have a fitted effect of over 55% in size
Details: HEK293 HTT-AS promoter firefly luciferase reporter, 24 h; activity change, positive = activation: at 57.5 µM (top of the series), percent change from vehicle, -100% = no light
Excerpt: Assay Provider: Russell L. Margolis M.D.
Department Neurology, Johns Hopkins University School of Medicine, Baltimore, MD
Huntington's Disease (HD) is a neurodegenerative disorder caused by a CAG repeat expansion in exon 1 of huntingtin (HTT). While there are currently no disease-modifying treatments for HD, recent efforts have focused on development of nucleotide-based therapeutics to lower HTT expression. As an alternative to siRNA or oligonucleotide methods, we hypothesized that suppression of HTT expression might be accomplished by small molecules that either (1) directly decrease HTT expression by suppressing HTT promoter activity or (2) indirectly decrease HTT expression by increasing the promoter activity of HTT-AS, the gene antisense to HTT that appears to inhibit expression of HTT.
We developed and employed a high throughput screen for modifiers of HTT and HTT-AS promoter activity using luminescent reporter HEK293 cells; of the 52,041 compounds tested, we identified 898 replicable hits. We used a rigorous stepwise approach to assess compound toxicity and the capacity of the compounds to specifically lower huntingtin protein in 5 different cell lines, including HEK293 cells, HD lymphoblastoid cells, mouse primary neurons, HD iPSCs differentiated into cortical-like neurons, and HD hESCs. We found no compounds which were able to lower huntingtin without lowering cell viability in all assays, though the potential efficacy of a few compounds at non-toxic doses could not be excluded.
SEQUENCE No. (1, 2, 3, etc.); […] (e.g., Cells, Incubation, Reagent, etc.); VALUE and DESCRIPTION.
1; Reagent; 4 uL; 2,500 Hek293 luciferase reporter cells per wells
3; Compound; 23 nL; Control inhibitor / compound library
5; Reagent; 2.5 uL; Firefly Luc reagent; Dual-Glo Luciferase Reporter Assay System (Promega)
6; Time; 10 min; room temperature incubation
7; Detection; Luminescence; FLuc
NOTES (numbers refer to sequence above)
1; High-throughput screening, measuring luminescence from a Hek293 luciferase reporter, was performed in 1,536 well white-walled tissue-culture treated plates. 2,500 cells were plated in 4 µL of Opti-MEM per well using a Multidrop Combi Reagent Dispenser (ThermoFisher).
2; Assay plates were cultured for 24 hours.
3; Control inhibitor (PTC124; final concentration of 50 uM) and compound library (at final concentrations of 460 nM - 57.5 uM) were added to the assay plate using the Kalypsis Pintool Robotic System equipped with 1536 pinheads.
4; Cells were then incubated for 24 hours at 37 degrees C prior to luminescence measurements.
5; In all cases, luminescence was measured using the Dual-Glo Luciferase Reporter Assay System (Promega) following the manufacturer's instructions.
6; Room temperature incubation.
7; Luminescence signal was obtained using the PerkinElmer ViewLux plate reader. Results were normalized to vehicle control (0% activity) and zero RLU (-100% activity).
Molecule Cc1c(NC(=O)c2sc3ccccc3c2Cl)cccc1-c1nc2ccccc2o1 has an activity change, positive = activation of 8.59%. O=S(=O)(Nc1ccc(-c2ccc(N3CCCC3)nn2)cc1)c1ccc(Br)cc1 gave an activity change, positive = activation of -2.15%. COc1ccc(OCc2nnc(-c3ccccc3)o2)cc1 gave an activity change, positive = activation of 34.3%. With COc1ccc(-c2cc(C(=O)Nc3c(C)nn(Cc4ccc(F)cc4)c3C)no2)cc1OC the activity change, positive = activation was -13.4%. For CCOc1ccc(S(=O)(=O)Nc2ccc(-c3ccc(N4CCCC4)nn3)cc2)cc1, the activity change, positive = activation was 3.42%. For CCc1nn(CC(=O)NCc2cccc(OC)c2)c(=O)c2cc3cc(F)ccc3n12, the activity change, positive = activation was 0.0152%. With CCc1c(C)sc2c1CCN(C(=O)Nc1cc(C)ccc1OC)C2c1ccc(F)cc1 (configuration not stated) the “activity change, positive = activation” value was inactive: -21.6%. For Cc1cncn1CCc1nc2c3ccccc3nc(SCC(=O)Nc3ccc(F)cc3)n2n1, the “activity change, positive = activation” value was inactive: 7.13%. In the case of COc1cccc(NC(CNS(=O)(=O)c2ccc(Cl)cc2)c2ccccc2)c1 (configuration not stated), the “activity change, positive = activation” value was inactive: -41.4%. For Cn1c(CNC(=O)CSc2nc(-c3cccc(Cl)c3)nc3cc(=O)[nH]n23)nc2ccccc21, the activity change, positive = activation was 1.2%. With O=C(CN1C=NS(=O)(=O)c2ccc(C(F)(F)F)cc21)Nc1cccc(C(F)(F)F)c1 the “activity change, positive = activation” value was inactive: -30.3%. For O=C(c1noc2c1CCCCC2)N1CCN(c2cccc(C(F)(F)F)c2)CC1, the “activity change, positive = activation” value was inactive: -39.4%. With CCCCC(=O)Oc1ccc2oc(-c3ccc(OC)cc3)cc(=O)c2c1 the Potency was active: 2 µM. Cc1ccc(F)cc1NC(=O)CCc1c(C)nn(-c2ccc(N3CCCC3)nn2)c1C gave an activity change, positive = activation of -3.14%. With CCCCN(CC)C(=O)c1cc2c(=O)n3cccc(C)c3nc2n1C the “activity change, positive = activation” value was inactive: -7.15%. Work on CCOc1ccc(C2C(=O)N(C3CCCCCC3)CC(=O)N2CCc2ccc(OC)c(OC)c2)cc1OC (configuration not stated) yielded an activity change, positive = activation of -11.1%. With Cc1c(CCC(=O)NCc2cccc(Cl)c2)c(=O)oc2c(C)c(O)ccc12 the activity change, positive = activation was -13.8%. Work on Cc1nn(-c2ccc(N3CCCC3)nn2)c(C)c1CCC(=O)Nc1ccc(F)cc1F yielded an activity change, positive = activation of -4.05%. For CC(=O)N1c2ccc(S(=O)(=O)NCC3CCC(C(=O)Nc4ccc(C)cc4)CC3)cc2CC1C (configuration not stated), the “activity change, positive = activation” value was inactive: -39.4%. In the case of CCOC(=O)c1ccc(N2CCN(c3cccc(OC)c3)CC2)c(NC(=O)Nc2ccc(OCC)cc2)c1, the activity change, positive = activation was 4.06%. Molecule COc1ccccc1CNS(=O)(=O)c1c(C)nc2scc(C)n2c1=O has an activity change, positive = activation of -8.97%. In the case of CC[C@]1(O)C[C@@H]2CN(CCc3c([nH]c4ccccc34)[C@@](C(=O)OC)(c3cc4c(cc3OC)N(C=O)[C@@H]3C45CCN4CC=C[C@](CC)([C@H]45)[C@@H](OC(C)=O)[C@]3(O)C(=O)OC)C2)C1 (some centres not stated), the “activity change, positive = activation” value was inactive: -16%. COC(=O)c1ccc(NC(=O)CCc2c(C)nn(-c3ccc(N4CCCC4)nn3)c2C)cc1 gave an activity change, positive = activation of -9.22%. For CCn1cc(-c2ccnc3[nH]c(-c4cccc(CN(C)C)c4)cc23)c(-c2ccc(NC(=O)N(C)C)cc2)n1, the “activity change, positive = activation” value was inactive: -46.1%. COc1ccccc1N1CCN(C(=O)CCc2c(C)nn(-c3ccc(N4CCCC4)nn3)c2C)CC1 showed an activity change, positive = activation of -19.5%. In the case of CCOc1ccn(-c2ccc(F)cc2)c(=O)c1C(=O)Nc1ccc(Oc2ccnc(N)c2Cl)c(F)c1, the “activity change, positive = activation” value was inactive: -16.3%. With CCn1c(SCc2ccccc2)nnc1-c1nonc1NC(C)=O the “activity change, positive = activation” value was inactive: -19.4%. In the case of Cc1ccccc1CCNC(=O)c1cc2ccccn2n1, the activity change, positive = activation was 87.3%. In the case of OCc1ccc(-c2ccc(-c3ccc(CO)s3)o2)s1, the “activity change, positive = activation” value was inactive: -9.42%. In the case of Cc1cccc(C(=O)Nc2cc3c(cc2N2CCCCC2)n(C)c(=O)n3C)c1, the activity change, positive = activation was 1.5%. Work on Cc1ccc(C)c(CNC(=O)C2CCCCN2S(=O)(=O)c2ccc(F)cc2)c1 (configuration not stated) yielded an activity change, positive = activation of -21.8%. Molecule O=C(CC(c1cccs1)N1Cc2ccccc2C1=O)Nc1ccc(Cl)cc1 (configuration not stated) has an activity change, positive = activation of -14.8%. Work on CCOc1ccc2nc(Cl)c(C3CC(c4ccc(C)cc4)=NN3C(=O)CCCC(=O)O)cc2c1 (configuration not stated) yielded an activity change, positive = activation of -7.05%. For CCOC(=O)c1[nH]c2ccccc2c1NC(=O)c1cc(Cl)ccc1Cl, the “activity change, positive = activation” value was inactive: -22.3%. COc1ccc(CNC(=O)c2cc3c(=O)n(Cc4ccco4)ccc3nc2C)c(OC)c1 gave an activity change, positive = activation of -17.9%. Work on CCOc1ccc(NC(=O)c2cc(-c3ccc(C)c(F)c3)on2)c([N+](=O)[O-])c1 yielded an activity change, positive = activation of 0.608%. In the case of Cc1ccc(NC(=O)n2ncc3c(C)cccc32)c(C)c1, the Potency was active: 7.08 µM. Work on CCCOc1ccc(NC(=O)CC2C(=O)N(c3cccc(OC)c3)C(=O)N2CCc2ccncc2)cc1 (configuration not stated) yielded an activity change, positive = activation of -15.5%. In the case of COc1ccc(N2CCN(C(=O)CCc3c(C)nn(-c4ccc(N5CCCC5)nn4)c3C)CC2)cc1, the activity change, positive = activation was -21.4%. Work on Cc1c(NC(=O)c2cc(-c3ccc(Cl)c(Cl)c3)on2)c(=O)n(-c2ccccc2)n1C yielded an activity change, positive = activation of -3.29%. For Cc1ccc(C)c(N2CCN(C(=O)C3CCN(c4nc(-c5ccc(C(C)C)cc5)no4)CC3)CC2)c1, the “activity change, positive = activation” value was inactive: -93.2%. For COc1cc(NC(=O)c2noc3c2CCc2ccccc2-3)cc(OC)c1OC, the activity change, positive = activation was -8.19%. Work on Cc1ccc(OCCn2c(-c3ccc(Cl)cc3)nc3ccccc3c2=O)c(C)c1 yielded an activity change, positive = activation of -5.2%. With CCCCNC(=O)c1cnc2sc(N3CCCCC3)nn2c1=O the activity change, positive = activation was 4%. COc1cccc(OCCCn2c(-c3ccc(Cl)cc3)nc3ccccc3c2=O)c1 gave an activity change, positive = activation of 11.9%. Cc1c(CCC(=O)NCc2ccc(F)cc2)c(=O)oc2cc(O)ccc12 showed an activity change, positive = activation of -3.05%. In the case of CCn1c(CN2CCCCC2)nc2cc(NC(=O)COc3ccccc3C(C)(C)C)ccc21, the “activity change, positive = activation” value was inactive: -25.4%.
